# Test results: the supplement of paper PMC3334620
# Over roughly 33,000 sequences, “E-score (-0.5 to 0.5)” has its median near -0.04; the highest 2% begin near 0.36. Some of the results follow.
# Biological target: T1, Hmlalpha2 (UniProt P0CY09)
# T1 sequence: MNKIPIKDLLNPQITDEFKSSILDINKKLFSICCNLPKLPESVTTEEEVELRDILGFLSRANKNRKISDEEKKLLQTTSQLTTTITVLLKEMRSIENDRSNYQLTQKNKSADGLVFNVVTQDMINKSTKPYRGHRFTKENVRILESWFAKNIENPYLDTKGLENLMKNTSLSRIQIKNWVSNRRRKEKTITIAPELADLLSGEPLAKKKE
# Test: PBM E-score (8-mer binding enrichment) (E-score (-0.5 to 0.5)); higher = stronger / more preferred TF binding; most listed sequences are background and not binding sites
# Settings: protein concentration: 200 nM; construct: GST-full length
# Procedure, shortened: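 Yeast transcription factors, full-length or as DNA-binding domains, were expressed with a GST tag using PURExpress in vitro transcription/translation. At about 100-200 nM they were applied to universal all-10-mer Agilent arrays, double-stranded by primer extension on fresh or once-stripped slides. Fluorescent anti-GST detected bound protein, and masliner normalised the scans. E-scores for ungapped eight-base words, pooled with reverse complements, came from the Universal PBM Analysis Suite.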
row,Sequence,PBM E-score
1,GCTCAGGA,0.0897
2,ACGAAGTA,0.0396
3,CGTTTTAG,0.00371
4,GGACCACA,-0.183
5,CAGCTTCG,-0.0555
6,GCGAGTTA,0.173
7,GACTTCGA,-0.0227
8,CGCAACCG,-0.176
9,GATTTAGA,-0.00065
10,AGTCCGCC,-0.349
11,CACGTACA,0.239
12,ATAGTAAG,0.0718
13,AGCGAGGC,-0.192
14,CGGGGTGA,-0.138
15,AAGCGTAC,0.0656
16,ATAGGATG,0.0195
17,AATCTATA,0.165
18,CATTGGAC,-0.0849
19,AGCCTACG,0.0399
20,CGTAAATC,0.227
21,TGAGGCCA,-0.0692
22,CCTTTTTA,0.156
23,CGAGGTTA,0.0651
24,ACTGTGCA,-0.0426
25,AAAACCTC,0.00349

row,Sequence,PBM E-score
1,GAGGGAGA,-0.338
2,CGCCCTGC,-0.122
3,ATTAAGCA,0.0508
4,CAGTGCTC,-0.133
5,TCGGTGAA,-0.144
6,AAGCTTAC,0.182
7,TAACATGA,0.462
8,TCCAATAA,0.101
9,AACGTACT,0.229
10,AAGCCCAG,-0.192
11,ATAGCCTG,0.00462
12,AAGGCAAT,-0.138
13,GGTGTTGA,0.124
14,CGCCCCGC,-0.177
15,ACACATCC,0.192
16,GACTGCAA,-0.182
17,ACATAGAC,0.229
18,AAAGGATT,0.0208
19,CAACCACA,0.0845
20,CTGACAAA,0.162
21,AAAGTGCT,-0.12
22,AAAAGGCA,0.0225
23,ATACTGGA,0.0598
24,AGCACCGA,-0.016
25,GCACTCAA,-0.0912

row,Sequence,PBM E-score
1,TGTACACA,0.418
2,ACCCCGGA,-0.0376
3,ATTAAGAC,0.0444
4,CCTGATTC,-0.222
5,CGCATAAA,0.154
6,ATATCACG,-0.0843
7,GGTTGAAC,0.081
8,ACCTGGGC,-0.287
9,AAGAATCA,-0.071
10,CATTAACG,0.277
11,ACACATGT,0.394
12,GCGTGTCC,0.142
13,ATCCGCTA,-0.0493
14,CATTCAGA,-0.125
15,AACTTAAC,0.248
16,GCACGTGA,0.0771
17,ACTACTTG,0.154
18,ATTTCTAC,0.234
19,ATACCGTG,0.0883
20,GAAGCACA,0.0477
21,CAATCCCG,-0.0881
22,CCCCGGGG,-0.346
23,AGGGTATG,0.0728
24,ATGGACAA,0.197
25,AGGCAGGC,-0.229

row,Sequence,PBM E-score
1,ATTATCGC,-0.0544
2,CCAATTCC,-0.0554
3,AACTGTGG,0.00645
4,CGGAAAAA,-0.0751
5,GAGAGGAA,-0.0668
6,CGCGTCAG,-0.0471
7,ATACTCAT,0.127
8,ACCAGAAC,-0.115
9,ATTTAACA,0.429
10,AGAAAGGA,-0.139
11,AATCAAAT,0.0328
12,AAGACGAC,-0.165
13,AGCCAACC,-0.159
14,TGAGATCA,0.00951
15,CTTCTTCC,-0.093
16,ACCGGGGA,-0.139
17,ACACTGCA,0.0302
18,ACGTTTGG,-0.019
19,AAGGCATC,-0.142
20,CTAAAGCA,0.0201
21,ATCAGGTG,-0.0698
22,ATGTATCG,0.323
23,GTGTAAAC,0.474
24,CTAGAGTC,-0.305
25,AGAGACTC,-0.216

row,Sequence,PBM E-score
1,CGAGTGCG,-0.102
2,AGGACATA,0.0838
3,GTATCCTA,0.0388
4,GTCCTGTA,0.14
5,GACATAAA,0.267
6,CACAGACG,0.115
7,TACATGAA,0.45
8,CACCTCGG,-0.121
9,ACTGGACT,-0.04
10,GGAACTCC,-0.255
11,AGTAGCTC,-0.151
12,ATATGCCG,-0.0441
13,GTAAATAA,0.357
14,TAGTTTCA,0.0755
15,GACAGTCA,-0.158
16,GCCCGTCC,-0.245
17,ACTTCTAA,-0.0759
18,ACGGTACG,0.096
19,TACTTGCA,0.162
20,AGGTTCTG,-0.0953
21,AGTCGAAA,-0.0792
22,GGGTCTGA,-0.249
23,CCTACATA,0.13
24,GTGGCATA,-0.0694
25,GAGAAGAA,-0.0573

row,Sequence,PBM E-score
1,TGCCAGAA,-0.155
2,AGCGATTG,-0.193
3,ACTGAGAG,-0.025
4,GTACCCGA,-0.208
5,ACACTGCT,0.0104
6,CTCTCCGA,-0.104
7,GATACACA,0.214
8,CATTTTGG,-0.0482
9,AGAAATAG,0.119
10,CTAAATCA,-0.0453
11,GTATTCAA,0.283
12,ACGGAGCG,-0.0183
13,AACAGAAT,-0.0385
14,ACTTTAAT,0.057
15,ATGCAGTA,0.136
16,GAAAGAGA,-0.201
17,CTTCTAGA,-0.132
18,ACCGTCCC,-0.206
19,ATCCGCTG,-0.2
20,AACTTCCG,0.0138
21,AAGATAGC,-0.0988
22,AAGCTTTG,-0.0782
23,TCAGGTCA,-0.138
24,ATGTGAGC,-0.048
25,ACTCGTGA,-0.0608

row,Sequence,PBM E-score
1,AACGTTCG,-0.0776
2,CGTCCCGC,-0.0473
3,CACCTGCG,-0.0191
4,ATATTGGC,0.0118
5,AAGTGCGT,0.0137
6,CTCGGCAG,-0.158
7,CCGGGTGA,-0.251
8,AAGCACCT,-0.0818
9,GCATAAAA,0.132
10,AAGCTACA,0.158
11,CATCACGC,0.0134
12,ATGCTTAA,0.0959
13,GACCCTTA,-0.0738
14,GAAACCTA,-0.115
15,AAGATTAA,0.145
16,CATTCCTC,-0.0357
17,AAATGCGT,0.132
18,AGCGGCCC,-0.385
19,TCATGTAA,0.482
20,GAGTCTGA,-0.337
21,CATAGACA,0.128
22,ATTTGTAC,0.195
23,ATGTTGCC,-0.0276
24,GCGTTCAC,0.0228
25,CAAGCCTG,0.0359

row,Sequence,PBM E-score
1,ACTACAGT,0.238
2,ATAGAGGG,-0.0748
3,ACTTCTCC,-0.253
4,ATACCTAT,0.0748
5,AATGCAAG,0.0745
6,CGTCTCAC,-0.224
7,CGAGAGAC,-0.234
8,CAATCCGC,-0.114
9,TGGTAAAA,0.266
10,ACTAAGAT,0.139
11,AACATCAA,0.294
12,GCGAGTGA,-0.0109
13,CGTAGGTC,-0.0792
14,AATCACGC,0.198
15,ATTGGGCG,-0.13
16,CTATTTAC,0.323
17,ATATATTG,0.0447
18,GAGCTGAA,-0.217
19,TATTGCGA,0.0191
20,CTGGTATA,-0.223
21,GGCTTATA,-0.0133
22,TCCCGCCA,-0.22
23,ACCGAGTA,0.045
24,CACCCAGG,-0.162
25,AAGCTAAG,-0.0323

row,Sequence,PBM E-score
1,CCACGGAG,-0.109
2,TCCAAGAA,-0.13
3,CCAGTTTC,-0.269
4,TTCTCAAA,0.00861
5,GGTCGTCA,-0.0493
6,AACTACCA,-0.0255
7,GCTCTGCA,-0.174
8,AAGCTTAA,0.041
9,CACCACGG,-0.144
10,CTAAACCC,-0.239
11,ATTTTGGG,-0.178
12,CAAACTTA,0.183
13,CACATACA,0.33
14,CTAGATCC,-0.22
15,CCTAAACC,-0.273
16,GCCTGTGA,-0.175
17,ACGGTGAA,0.0542
18,GTCGTCAC,-0.0539
19,ATTATTAG,0.00734
